Assay results taken from the supplement of paper PMC9588766.
Structures can show the parent of a compound that is named as a salt. ± gives the standard deviation of the averaged measurements. Whole data set: some 2,000 compounds, median “cell viability relative to DMSO control (compound alone)” near 0.98, cut for the lowest 2% near 0.23. The list shows a part of the results.

These compounds were tested on PDC-DUC18828 (assay: cell viability relative to DMSO control (compound alone) (fraction); PDC-DUC18828 is a patient-derived cholangiocarcinoma cell line; higher = less growth inhibition). Settings: 1 µM; 72 h.
Protocol: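 Selleck Bioactive library screen in the patient-derived FGFR2-G3BP2 fusion-positive ICC cell line PDC-DUC18828 (500 cells/well). Each compound was tested at 1 uM alone, in triplicate, for 72 h. Viability was read by CellTiter-Glo and normalised to plate DMSO controls.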
CC(=O)Oc1ccccc1C(=O)O [Aspirin] gave a cell viability of 0.978 ± 0.048.
N=C(N)NS(=O)(=O)c1ccc(N)cc1 [Sulfaguanidine] showed a cell viability of 1.11 ± 0.048.
COc1ccc2ccc(=O)oc2c1CC=C(C)C [Osthole] showed a cell viability of 0.961 ± 0.047.
O=C(Nc1nc2cccc(-c3ccc(CN4CCS(=O)(=O)CC4)cc3)n2n1)C1CC1 [Filgotinib (GLPG0634)] showed a cell viability of 0.961 ± 0.048.
In the case of CC1=C(/C=C/C(C)=C/C=C/C(C)=C/C(=O)O)C(C)(C)CCC1 [Tretinoin], the cell viability is reported as 0.909 ± 0.042.
C[C@]12CC[C@H](O)CC1=CC[C@@H]1[C@@H]2CC[C@]2(C)C(n3cnc4ccccc43)=CC[C@@H]12 [Galeterone] gave a cell viability of 1.06 ± 0.033.
In the case of CN(C)CCOC(c1ccccc1)c1ccccc1 [Diphenhydramine HCl], the cell viability is reported as 1.03 ± 0.028.
COc1ccc2[nH]c([S+]([O-])Cc3ncc(C)c(OC)c3C)nc2n1 (centres undefined) [Tenatoprazole] gave a cell viability of 1.01 ± 0.013.
CCOC(=O)CCNc1cc(N2CCc3ccccc3CC2)nc(-c2ccccn2)n1 gave a cell viability of 0.9 ± 0.034.
For Cn1cc(CNCC2CCN(c3ncc(C(=O)NO)cn3)CC2)c2ccccc21, the cell viability was 0.112 ± 0.0029.
CC(=O)[C@H]1CC[C@H]2[C@@H]3CCC4=CC(=O)CC[C@]4(C)[C@H]3CC[C@]12C [Progesterone] showed a cell viability of 0.996 ± 0.015.
In the case of CN(C)CC/C=C1/c2ccccc2Sc2ccc(Cl)cc21 [Chlorprothixene], the cell viability is reported as 0.957 ± 0.039.
For C[C@]12CC[C@@H]3c4ccc(O)cc4CC[C@H]3[C@@H]1CC[C@@H]2O [Estradiol], the cell viability was 0.976 ± 0.033.
With CCCN(CCC)S(=O)(=O)c1ccc(C(=O)O)cc1 [Probenecid] the cell viability was 0.958 ± 0.029.
CCNC(=O)Nc1ccc(-c2nc3c(c(N4CCOC[C@@H]4C)n2)CCN(C2COC2)C3)cc1 showed a cell viability of 0.506 ± 0.04.
For CCNC(=O)c1[nH]nc(-c2cc(Cl)c(O)cc2O)c1-c1ccc(OC)cc1, the cell viability was 0.697 ± 0.032.
C[C@H](NC(=O)/C(C#N)=C/c1cccc(Br)n1)c1ccccc1 was tested, and the cell viability was 0.994 ± 0.019.
With CC(C)c1ccc(NC(=O)Cn2cnc3c2c(=O)n(C)c(=O)n3C)cc1 the cell viability was 0.953 ± 0.063.
CC1CNc2c(cccc2S(=O)(=O)N[C@@H](CCCNC(=N)N)C(=O)N2CC[C@@H](C)C[C@@H]2C(=O)O)C1 (some centres undefined) [Argatroban] showed a cell viability of 1.11 ± 0.064.
CN(C)CCN(Cc1ccccc1)c1ccccn1 [Tripelennamine HCl] gave a cell viability of 1 ± 0.033.
For CO[C@H]1C[C@@H]2CC[C@@H](C)[C@@](O)(O2)C(=O)C(=O)N2CCCC[C@H]2C(=O)O[C@H]([C@H](C)C[C@@H]2CC[C@@H](OCCO)[C@H](OC)C2)CC(=O)[C@H](C)/C=C(\C)[C@@H](O)[C@@H](OC)C(=O)[C@H](C)C[C@H](C)/C=C/C=C/C=C/1C [Everolimus (RAD001)], the cell viability was 0.563 ± 0.014.
With Fc1ccc(Cl)cc1-c1nc(Nc2ccncc2)c2nccnc2n1 the cell viability was 0.966 ± 0.056.
With Nc1ccn([C@@H]2O[C@H](CO)[C@@H](O)C2(F)F)c(=O)n1 [Gemcitabine] the cell viability was 0.267 ± 0.021.
Work on COc1ccccc1N1CCN(CCN(C(=O)C2CCCCC2)c2ccccn2)CC1 yielded a cell viability of 1.05 ± 0.057.
With CC(=O)O[C@@]12CO[C@@H]1C[C@H](O)[C@@]1(C)C(=O)[C@H](O)C3=C(C)[C@@H](OC(=O)[C@H](O)[C@@H](NC(=O)OC(C)(C)C)c4ccccc4)C[C@@](O)([C@@H](OC(=O)c4ccccc4)[C@H]21)C3(C)C [Docetaxel] the cell viability was 0.28 ± 0.013.
With O=C(/C=C/c1ccccc1)NC(NC(=S)Nc1cccc2cccnc12)C(Cl)(Cl)Cl (centres undefined) [Salubrinal] the cell viability was 0.992 ± 0.05.
Compound O=C(c1ccc(Nc2nccc(-c3cc4ccccc4s3)n2)cc1)N1CCC(N2CCCC2)CC1 [IKK-16 (IKK Inhibitor VII)] has a cell viability of 0.908 ± 0.058.
Clc1ccc(CSC(Cn2ccnc2)c2ccc(Cl)cc2Cl)cc1 (centres undefined) [Sulconazole Nitrate] was tested, and the cell viability was 0.982 ± 0.017.
In the case of Nc1ncnc2c1ncn2[C@@H]1O[C@H](CO)[C@@H](O)[C@H]1O [Adenosine], the cell viability is reported as 1.08 ± 0.015.
In the case of Cc1cc(C)c(Nc2ccnc(Nc3ccc(C#N)cc3)n2)c(C)c1 [Dapivirine (TMC120)], the cell viability is reported as 0.878 ± 0.039.
Cc1cc(/C=C2/SC(=S)NC2=O)c(C)n1-c1cccnc1 [Optovin] gave a cell viability of 0.96 ± 0.037.
COc1cc(C(=O)O)ccc1NC(=O)[C@@H]1N[C@@H](CC(C)(C)C)[C@](C#N)(c2ccc(Cl)cc2F)[C@H]1c1cccc(Cl)c1F [Idasanutlin (RG-7388)] was tested, and the cell viability was 0.987 ± 0.075.
For O=C(O)C(O)Cc1ccc(O)c(O)c1 (centres undefined) [Sodium Danshensu], the cell viability was 0.885 ± 0.031.
In the case of N[C@@H](Cc1cc(I)c(Oc2cc(I)c(O)c(I)c2)c(I)c1)C(=O)O [L-Thyroxine], the cell viability is reported as 0.933 ± 0.034.
With CC1(C)CCC(C)(C)c2cc(NC(=O)c3ccc(C(=O)O)cc3)ccc21 [Tamibarotene] the cell viability was 0.986 ± 0.013.
O=C1Nc2ccccc2/C1=C1/Nc2ccccc2C1=O [Indirubin] gave a cell viability of 0.934 ± 0.041.
Nc1cccc2c1C(=O)N(C1CCC(=O)NC1=O)C2=O (centres undefined) [Pomalidomide] gave a cell viability of 1.05 ± 0.021.
Oc1ccc(OC2CCCCO2)cc1 (centres undefined) [Deoxyarbutin] showed a cell viability of 0.999 ± 0.071.
Work on C[C@H](Cc1cc2c(c(C(N)=O)c1)N(CCCO)CC2)NCCOc1ccccc1OCC(F)(F)F [Silodosin] yielded a cell viability of 1.06 ± 0.057.
Compound CN(C)CCOc1ccc(-c2nc(-c3ccncc3)c(-c3ccc4c(c3)CC/C4=N\O)[nH]2)cc1 has a cell viability of 1.17 ± 0.06.
Work on Cc1ccc(-n2sc(=O)n(Cc3ccc(F)cc3)c2=O)cc1 yielded a cell viability of 0.937 ± 0.014.
Work on O=C(NCCN1CCOCC1)c1ccc(Cl)cc1 yielded a cell viability of 0.954 ± 0.05.
Cc1cc(Cl)ccc1OCCCC(=O)NO [Droxinostat] gave a cell viability of 0.995 ± 0.03.
For C/C(=C\C(=O)Nc1ccccc1C(=O)O)c1ccc2ccccc2c1, the cell viability was 1.07 ± 0.02.
O=C(c1ccc(/C=C/c2n[nH]c3ccccc23)cc1)N1CCNCC1 gave a cell viability of 0.878 ± 0.035.
In the case of CS(=O)(=O)c1ccc(-c2cnc(N)c(C(=O)Nc3ccccc3)n2)cc1, the cell viability is reported as 0.975 ± 0.066.
O=C(Oc1ccccc1C(=O)O)c1ccccc1O [Sasapyrine] gave a cell viability of 1.09 ± 0.053.
Compound COc1c(C)c2c(c(O)c1C/C=C(\C)CCC(=O)O)C(=O)OC2 [Mycophenolic acid] has a cell viability of 0.501 ± 0.018.
For C[C@H]1O[C@@H](n2cc(F)c(=O)[nH]c2=O)[C@H](O)[C@@H]1O [Doxifluridine], the cell viability was 1.02 ± 0.042.
Work on CC(C)(C)c1nc(-c2cccc(NS(=O)(=O)c3c(F)cccc3F)c2F)c(-c2ccnc(N)n2)s1 yielded a cell viability of 0.847 ± 0.028.
CC1(C)CC[C@]2(C(=O)O)CC[C@]3(C)C(=CC[C@@H]4[C@@]5(C)CC[C@H](O)C(C)(C)[C@@H]5CC[C@]43C)[C@@H]2C1 [Oleanolic Acid] was tested, and the cell viability was 0.987 ± 0.043.
Compound O=C(O)CCCCC(CCSCc1ccccc1)SCc1ccccc1 (centres undefined) has a cell viability of 0.949 ± 0.028.
In the case of O=c1c(-c2ccc(O)cc2)coc2cc(O)ccc12 [Daidzein], the cell viability is reported as 1.01 ± 0.043.
Work on COc1cccc(Nc2c(C(N)=O)cnc3c(C)cc(S(=O)(=O)c4cccc(C(=O)N(C)C)c4)cc23)c1 yielded a cell viability of 0.957 ± 0.042.
In the case of Nc1c(CC(=O)O)cccc1C(=O)c1ccc(Br)cc1 [Bromfenac Sodium], the cell viability is reported as 0.998 ± 0.035.
CC1(C)O[C@@H]2C[C@H]3[C@@H]4CCC5=CC(=O)CC[C@]5(C)[C@@]4(F)[C@@H](O)C[C@]3(C)[C@]2(C(=O)CCl)O1 [Halcinonide] was tested, and the cell viability was 0.97 ± 0.043.
In the case of C[C@]12C=CC(=O)C=C1CC[C@H]1[C@@H]3C[C@@H](O)[C@](O)(C(=O)CO)[C@@]3(C)C[C@H](O)[C@@]12F [Triamcinolone], the cell viability is reported as 0.924 ± 0.048.
N#Cc1ccc(COC[C@H]2O[C@@H](n3c(NCc4ccc(Cl)c(Cl)c4)nc4c(N)ncnc43)[C@H](O)[C@@H]2O)cc1 gave a cell viability of 0.853 ± 0.0064.
Compound C[C@@H]1O[C@@H](OC[C@H]2O[C@@H](Oc3c(-c4ccc(OCCO)c(OCCO)c4)oc4cc(OCCO)cc(O)c4c3=O)[C@H](O)[C@@H](O)[C@@H]2O)[C@H](O)[C@H](O)[C@H]1O [Troxerutin] has a cell viability of 0.9405 ± 0.0035.
Work on CCN(CC)C(=O)/C(C#N)=C/c1cc(O)c(O)c([N+](=O)[O-])c1 [Entacapone] yielded a cell viability of 1.02 ± 0.022.
Work on C[C@@H](O)[C@H]1C(=O)N2C(C(=O)O)=C(S[C@@H]3CN[C@H](C(=O)N(C)C)C3)[C@H](C)[C@H]12 [Meropenem] yielded a cell viability of 1.07 ± 0.022.
Compound Cn1nnc(-c2ccc3c(c2)[nH]c2nc(Cc4ccccc4)nc(NC4CCC(N)CC4)c23)n1 (centres undefined) has a cell viability of 0.855 ± 0.032.
CC(=O)O[C@H]1C[C@@H]2CC[C@@H]3[C@H](CC[C@@]4(C)[C@H]3C[C@H]([N+]3(C)CCCCC3)[C@@H]4OC(C)=O)[C@@]2(C)C[C@@H]1N1CCCCC1 [Vecuronium Bromide] showed a cell viability of 1.03 ± 0.038.
Compound CN(C)Cc1cccc(N=C(c2ccccc2)c2c(O)[nH]c3cc(C(=O)N(C)C)ccc23)c1 has a cell viability of 0.976 ± 0.026.
OC(c1cc(C(F)(F)F)nc2c(C(F)(F)F)cccc12)C1CCCCN1 (centres undefined) [Mefloquine HCl] showed a cell viability of 1.04 ± 0.07.
In the case of COc1ccc2c(c1)c(CC(=O)N1CCOCC1)c(C)n2C(=O)c1ccc(Cl)cc1, the cell viability is reported as 0.93 ± 0.052.
With Cc1coc2c1C(=O)C(=O)c1c-2ccc2c1CCCC2(C)C [Tanshinone IIA] the cell viability was 1.06 ± 0.068.
For CC[C@H]1OC(=O)C[C@@H](O)[C@H](C)[C@@H](O[C@@H]2O[C@H](C)[C@@H](O)[C@H](N(C)C)[C@H]2O)[C@@H](CCN2C[C@H](C)C[C@H](C)C2)C[C@@H](C)C(=O)/C=C/C(C)=C/[C@@H]1CO[C@@H]1O[C@H](C)[C@@H](O)[C@@H](OC)[C@H]1OC [Tilmicosin], the cell viability was 0.998 ± 0.021.
Compound CCc1c(O)cc(O)c(C(=O)c2ccc(OCCN3CCOCC3)c(OC)c2)c1CC(=O)N(CCOC)CCOC has a cell viability of 0.789 ± 0.069.
Work on CNCCCC12CCC(c3ccccc31)c1ccccc12 [Maprotiline HCl] yielded a cell viability of 1.02 ± 0.038.
Work on CC(=O)N[C@@H](CS)C(=O)O [Acetylcysteine] yielded a cell viability of 1.08 ± 0.021.
C[C@]1(c2nc3c(C(N)=O)cccc3[nH]2)CCCN1 [Veliparib (ABT-888)] gave a cell viability of 1.04 ± 0.068.
For O=C(O)Cc1cccc(OCCCN(Cc2cccc(C(F)(F)F)c2Cl)CC(c2ccccc2)c2ccccc2)c1, the cell viability was 1.04 ± 0.084.
O=c1cc(-c2ccccc2)oc2cc(O)c(O)c(O)c12 [Baicalein] gave a cell viability of 1.08 ± 0.054.
